The whole screen tested about 44,000 compounds, of which about 340 (0.77%) were called active. Another 5% or so got no clear call; they are omitted. The call rests on the fitted dose curve; in most records, active means well fitted inhibition curve with a large enough effect; inconclusive means small, poorly fitted or top-dose-only effect; inactive means flat fitted curve, though single readings scatter. Some of the results follow.
Assay: Acumen qHTS Assay for Inhibitors of the mTORC1 Signaling Pathway in MEF (Tsc2-/-, p53-/-) Cells: Sytravon;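 further: plate controls were DMSO for no effect and rapamycin for full effect; nearly all actives have a fitted effect of over 50% in size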
Settings: phospho-rpS6 immunofluorescence/PI, 24 h; series mostly up to 38.3 µM; activity change, negative = inhibition: at the top concentration
How it was run: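 Immunofluorescence of rpS6 phosphorylation in Tsc2-/-, p53-/- MEFs after 24 h compound exposure, normalized to propidium iodide signal. Activity is expressed as % positive cells, thresholded with 7.5 nM rapamycin.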

Activity change, negative = inhibition, inactive:
COc1ccc(OCC(=O)Nc2cc(-c3nc4ccccc4o3)ccc2Cl)cc1 1.24%
O=C1Nc2ccccc2C1Cc1ccc(Br)cc1 (configuration not stated) -0.701%
Cc1ccc(NC(=O)CN2C(=O)c3ccccc3Sc3ccc(C(=O)N4CCOCC4)cc32)cc1C 0.57%
CCC(=O)N1CCc2cc(S(=O)(=O)NCCC(=O)Nc3ccc(C)cc3C)ccc21 0.679%
Cc1ccc(NC(=O)CSc2nc3nccnc3c(=O)n2CCc2c[nH]c3ccccc23)cc1C -0.644%
Cc1ccccc1OCCSc1nc2ccc(NC(=O)c3ccco3)cc2s1 -8.75%
Oc1c(C(c2ccc(Cl)cc2Cl)N2CCN(Cc3ccccc3)CC2)sc2nc(-c3ccco3)nn12 (configuration not stated) -9.94%
CC(=O)c1cccc(NC(=O)c2cc3sc(Cl)cc3n2C)c1 2.26%
Cc1ccc(CNC(=O)Cn2ccn(-c3ccc(F)c(F)c3)c(=O)c2=O)cc1 3.67%
CCC(Sc1nc2ccncc2[nH]1)C(=O)Nc1cc(C)ccc1C (configuration not stated) 1.22%
COCCNC(=O)CCCn1c(SCc2ccccc2C)nc2c(sc3ccccc32)c1=O 0.727%
Cc1ccc(C2N3CC4(C)CN2CC(c2ccccc2)(C3)C4=O)cc1 (configuration not stated) 2.1%
CCn1cc(/C=C(\NC(=O)c2ccccc2Cl)C(=O)NCCCn2ccnc2)c2ccccc21 0.527%
Cc1ccc(CNC(=O)c2ccc(N3Cc4ccccc4Oc4ncccc43)s2)cc1 -1.87%
CCOc1ccc(C(=O)Nc2ccc(C(=O)OCc3cc(=O)n4c(C)csc4n3)cc2)cc1 3.82%
CCOCCCNC(=O)C(c1ccc(Cl)cc1)N(Cc1ccc2c(c1)OCO2)C(=O)c1ccc(NC(C)=O)cc1 (configuration not stated) -11.2%
Cc1ccc(Cl)cc1NC(=O)c1cc(S(=O)(=O)N2CCOCC2)cn1C -1.83%
COc1ccccc1CNc1ncnc2c1nc1n2CCCC1 1.22%
O=C(O)c1ccc2c(c1)N(Cc1ccc(F)cc1)C(=O)c1ccccc1S2=O (configuration not stated) 0.687%
Cc1cc(NC(=O)c2cc(-c3ccc(F)cc3)on2)nn1Cc1ccc(Cl)cc1 -3.41%
COc1ccccc1CNS(=O)(=O)c1c(C)nc2sc(C)cn2c1=O -0.817%
CC1CCN(S(=O)(=O)c2ccc3c(c2)N(CC(=O)NCCN(C)C)C(=O)CS3)CC1 -0.951%
O=C(NCCc1ccccc1)c1ccc2c(c1)CCN2S(=O)(=O)c1ccc(Cl)cc1 -10.6%
Cc1ccc2c(CC(=O)Nc3ccc(S(=O)(=O)N4CCCC(C)C4)cc3)coc2c1 (configuration not stated) 2.44%
O=C(Cn1c(=O)c2cccn2c2ccc(F)cc21)Nc1cccc(F)c1 -1.79%
CCCCN(C)C(=O)C1CCC(Cn2c(=O)[nH]c3ccsc3c2=O)CC1 (configuration not stated) -2.51%
OC(c1ccccc1)c1nc2ccccc2n1Cc1c(F)cccc1Cl (configuration not stated) -4.81%
Cc1oc2ncnc(N3CCOCC3)c2c1C(=O)Nc1ccc(Br)cc1F 0%
CCOc1ccc(-c2cc3c(=O)n(CC(=O)NCc4ccccc4)ccn3n2)cc1 5.1%
Fc1ccc(-n2nc(-c3ccccc3)c3cnc4ccccc4c32)cc1Cl 5.58%
O=C(CSc1nc(=O)n(Cc2ccccn2)c2c1CCC2)Nc1cccc(Cl)c1 6.37%
COCCNC(=O)CSc1nc(-c2ccc(C)cc2)[nH]c1-c1ccc(OC)cc1 0.531%
CC(C)CCNC(=O)C1CCC(CNS(=O)(=O)c2cccc3nsnc23)CC1 (configuration not stated) 1.31%
CCc1ccc(NC(=O)CN2C(C(=O)OC)=C(c3ccccc3)c3ccccc3S2(=O)=O)cc1 -13.7%
Cc1ccccc1OCC(=O)Nc1ccccc1C(=O)OCc1cc(=O)n2nc(C3CC3)sc2n1 4.26%
Cc1cccc(NC(=O)c2oc3ccccc3c2NC(=O)Cc2coc3cc(C)cc(C)c23)c1 0.524%
Cc1ccc(C(=O)c2cn(Cc3ccccc3)c3ccccc3c2=O)cc1 -7.16%
Cc1cccc(-c2nc3cc(NC(=O)COc4ccccc4F)ccc3o2)c1 0%
COc1ccc(NC(=O)Cn2ccn(-c3ccc(C)c(C)c3)c(=O)c2=O)cc1Cl 4.53%
Cc1cc(N2CCN(c3ccc(F)cc3)CC2)n2cnnc2n1 -2.01%
Cc1ccc(-c2c3c(=O)n(C)c(=O)n(C)c3c3c(C)nc4ccccc4n23)cc1 7.72%
COc1ccc(Cl)cc1NC(=O)CSc1nc(=O)[nH]c2c1CCC2 -4.92%
O=C(Cc1cccs1)NC1CC(=O)N(c2ccc(Cl)cc2)C1 (configuration not stated) 2.95%
Cc1ccc(-c2nn3c(-c4ccccc4)nnc3c3ccccc23)cc1 0.79%
CC(C)Sc1ncc(Cl)c(C(=O)N(Cc2ccc(F)cc2)C2CCS(=O)(=O)C2)n1 (configuration not stated) -6.93%
Cc1cccc(C(=O)OCc2cc(=O)n3nc(C4CCCCC4)sc3n2)c1 -16.6%
COc1ccc(N2Cc3cccc(C(=O)Nc4ccc(C)c(C)c4)c3C2=O)cc1 -5.41%
CCc1cccc(N2C(=O)CS(=O)(=O)C23C(=O)N(Cc2ccc(F)cc2)c2ccc(C)cc23)c1 (configuration not stated) -1.8%
O=C(NCCC1=CCCCC1)c1ccc2c(c1)N(Cc1ccccc1F)C(=O)c1ccccc1S2(=O)=O -10.2%
Cc1ccc(NC(=O)CN2C(=O)C(C)(C)c3ccccc32)cc1 0.363%
CC1=C(C(=O)Nc2ccc(C)cc2)C(c2ccc(Cl)cc2)n2nnnc2N1 (configuration not stated) -19.9%
CCOc1ccc(N2CC(NC(=O)Cc3ccccc3)CC2=O)cc1 (configuration not stated) -7.51%
CCN1c2cc(C)ccc2-n2cccc2C12CCN(C(=O)Nc1cc(OC)c(OC)c(OC)c1)CC2 0.179%
COc1ccc(N2CC(NC(=O)COc3ccccc3C)CC2=O)cc1OC (configuration not stated) -0.184%
Cc1ccc(S(=O)(=O)c2nc(-c3ccco3)oc2SCc2ccccc2Cl)cc1 -0.371%
CCOC(=O)c1cc(-c2ccccc2)n(-c2cccc(C(=O)N(CC)c3ccccc3)c2)c1C 1.27%
Cc1cc(C)cc(NC(=O)C(=O)NC(C)c2ccccc2)c1 (configuration not stated) -29.1%
Cc1c2cnn(-c3ccccc3)c(=O)c2c(C)n1C(C)C(=O)Nc1ccc(Br)cc1F (configuration not stated) -5.73%
CC(C)c1ccc2oc(-c3cccc(NC(=O)c4ccc5c(c4)OCCO5)c3)nc2c1 -18.3%
Cc1ccc(-n2c(SCC(=O)Nc3cccc(F)c3)nc3c(oc4ccccc43)c2=O)cc1C 1.38%
COc1ccc(N2CCN(C(=O)NCc3noc4ccccc34)CC2)cc1 -7.6%
Cc1ccc2oc3c(c(=O)c2c1)C(c1cccc(O)c1)N(Cc1ccccc1Cl)C3=O (configuration not stated) -0.852%
COc1cccc(NC(=O)C2CCCN2S(=O)(=O)c2ccc3c(c2)C(C)(C)C(=O)N3C)c1 (configuration not stated) 2.31%
Cc1cc(C)cc(-n2ccn3c(CC(C)(C)CC(=O)O)nnc3c2=O)c1 8.39%
CCOc1ccc(/C=C/c2nc(C#N)c(Nc3ccc(OC)cc3)o2)cc1 -10.6%
CCCOc1ccc(CN(C(=O)c2nc(SC(C)C)ncc2Cl)C2CCS(=O)(=O)C2)cc1 (configuration not stated) -5.25%
CSc1ccc(CCNC(=O)CCc2c(C)nc3cc(-c4ccccc4)nn3c2C)cc1 -3.2%
N#Cc1ccccc1Cn1c(=O)n(Cc2ccc(C(=O)NC3CCN(Cc4ccccc4)CC3)cc2)c(=O)c2ccccc21 -2.81%
Fc1ccc(-c2ccc(CNCCSc3nnnn3-c3ccccc3)o2)cc1Cl -6.53%
O=C(Nc1c(C(=O)Nc2cccc(F)c2)oc2ccccc12)c1cc2ccccc2o1 0.584%
COc1cc2[nH]c(=O)n(CCCCCC(=O)NCCc3ccccc3)c(=O)c2cc1OC 1.9%
CCOC(=O)c1c(NC(=O)COc2cccc(C(F)(F)F)c2)sc2c1CCCCC2 5.78%
CC(C)COc1ccc(C(=O)N2CCN(CCc3ccccn3)CC2)cc1 -6.55%
O=C(CSc1ncc(CO)n1Cc1ccccc1)Nc1ccc(C(F)(F)F)cc1 -4.54%
COc1cccc(C2c3c(-c4ccccc4O)n[nH]c3C(=O)N2CCc2ccc(OC)c(OC)c2)c1 (configuration not stated) 1.78%
O=C(Nc1nnc(S(=O)(=O)N2CCc3ccccc32)s1)c1ccccc1 12.8%
CCOc1nc(-c2ccc(C)cc2)ccc1-c1noc(-c2ccccc2F)n1 0.974%
CCc1ccc(-c2nc(-c3cc4ccccc4oc3=O)sc2C)cc1 2.27%
Cc1ccc(Sc2c(C(=O)NCc3ccccc3C)[nH]c3ccccc23)cc1 -4.3%
COc1cc(NC(=O)c2cnc3c(-c4ccc(F)cc4)c(C)nn3c2C)cc(OC)c1 -10.1%
Cc1ccc(-c2nc3ccc(Cl)cn3c2Nc2ccc3c(c2)OCCO3)s1 3.31%
COc1ccc(CNC(=O)CN2C(=O)CCCc3ccccc32)cc1 -0.451%
CCN(CC)S(=O)(=O)c1ccc2oc(C(=O)Nc3ccc(Br)cc3F)c(C)c2c1 8.99%
COc1ccc(NC(=O)CC(C)n2nc(C)cc2C)cc1Cl (configuration not stated) -0.962%
COc1ccc(CCNC(=O)CCc2c(C)c3cc4c(C)c(C)oc4cc3oc2=O)cc1 -4.05%
CCn1c(C(=O)Nc2cc(Cl)ccc2C)cc2sc(Cl)cc21 -11.6%
CCOc1ccc(CCNC(=O)Cn2ncn3c(cc4ccccc43)c2=O)cc1OCC 1.38%
CCOC(=O)C(=O)Nc1c(C(=O)Nc2cccc(F)c2)oc2ccccc12 -3.48%
COc1ccccc1N1CCN(c2nc3c(S(=O)(=O)c4ccc(C)c(C)c4)nnn3c3ccc(Cl)cc23)CC1 -5.06%
CCN(CCCNC(=O)c1nn(-c2ccc(OC)c(Cl)c2)c(=O)c2c1c1ccccc1n2C)c1cccc(C)c1 0.586%
Cc1ccc(Cn2c(CNS(=O)(=O)c3ccc(Cl)s3)nc3cccnc32)cc1 -1.69%
Cc1cccc(-c2nc(SCC(=O)NCc3ccco3)c3c(=O)n(C)c(=O)n(C)c3n2)c1 -18.4%
Cc1cc2[nH]c(=O)c(=O)[nH]c2cc1S(=O)(=O)N1CCN(c2cccc(C)c2C)CC1 -7.68%
CCc1ccccc1Nc1cc(C(=O)NC2CCC(C)CC2)c2ccccc2n1 (configuration not stated) -13.5%
COc1ccc(CNC(=O)c2cc(-c3ccc(C)c(C)c3)n[nH]2)cc1 -0.397%
CCc1c(C)sc(NC(=O)C2c3ccccc3Oc3ccccc32)c1C(=O)OC(C)C 5.68%
CCOC(=O)c1cccc(NC(=O)C2CCCN(c3nnc(C)c4c(C)n(-c5ccccc5)nc34)C2)c1 (configuration not stated) -5.56%
